Data as given in PubChem BioAssay AID463173 (ICCB-Longwood Screening Facility, Harvard Medical School, 2010).
Among all 52,000 compounds or so, about 1,700 (3.3%) were called active. Rule as the data show it: active = survival mostly below about 52% (no sharp cut-off); inactive = mostly above about 56%. The list shows a part of the results.

Test system: Wild type
Test: growth inhibition of S. aureus wild type versus tarO mutant, primary screen, teichoic acid synthesis inhibitors, RN4220, OD600 (AID 463173)
Conditions: S. aureus RN4220 wild type/DeltatarO growth, OD600, 18 h, stronger effect = lower value, screened at 18.75 µg/mL (by protocol)

| Structure (SMILES) | survival |
| --- | --- |
| CCCSc1nc2c(c(=O)[nH]1)C(c1ccc(O)c(OCC)c1)CC(=O)N2 (configuration not stated) | inactive: 108% |
| Cn1c(=O)c2c(nc(NCc3ccccc3)n2Cc2ccc(Cl)c(Cl)c2)n(C)c1=O | inactive: 80% |
| O=C(NCCOc1ccccc1Cl)c1ncn[nH]1 | inactive: 121% |
| COc1ccc(C(=O)NCCc2nc3ccccc3[nH]2)cc1 | inactive: 137% |
| COc1ccc(N2CC(C(=O)Nc3ccccc3-c3nc(-c4ccc(C)cc4)no3)CC2=O)cc1 (configuration not stated) | inactive: 88% |
| CCOc1ccc(C(CC(=O)Nc2ccc(C(=O)OC)cc2)N2Cc3ccccc3C2=O)cc1OC (configuration not stated) | inactive: 45% |
| CC(C)(C)c1ccc(OCc2cc(=O)n3c4c(sc3n2)CCCC4)cc1 | inactive: 84% |
| Cc1ccccc1CSCc1ccc(C(=O)NCCc2ccccc2)o1 | inactive: 77% |
| COc1cccc(NC(=O)c2oc3ccc(S(=O)(=O)N4CCC5(CC4)OCCO5)cc3c2C)c1 | inactive: 119% |
| CCOc1ccccc1Nc1nc(N)nc(CN(C)C2CCCCC2)n1 | inactive: 112% |
| CCc1ccc(-n2nc(C)c3c(C)cc(=O)n(CC(=O)N(CC)Cc4ccccc4)c32)cc1 | inactive: 97% |
| CCc1ccc(C(=O)c2cn(Cc3ccccc3)c3cc(OC)c(OC)cc3c2=O)cc1 | inactive: 97% |
| O=C(COc1ccc(F)cc1)OCc1cc(=O)n2nc(C3CC3)sc2n1 | inactive: 70% |
| Cc1ccc(CCNC(=O)C2CCCN(S(=O)(=O)c3ccc4c(c3)oc(=O)n4C)C2)cc1 (configuration not stated) | inactive: 87% |
| COc1ccccc1NC(=O)CSc1nc(-c2cccc(Cl)c2)nc2c1Cc1c(CO)cnc(C)c1O2 | inactive: 90% |
| CCOc1ccc(CCNC(=O)CCSCc2cccc(Cl)c2)cc1OCC | inactive: 71% |
| Oc1c(C(c2ccc(Cl)cc2Cl)N2CCCC2)sc2nc(-c3ccco3)nn12 (configuration not stated) | inactive: 54% |
| CCCCOC(=O)c1ccc(Nc2nc3ccc(C)cc3n3cnnc23)cc1 | inactive: 77% |
| CCc1ccccc1NC(=O)COC(=O)c1cn(CC)c2nc(C)ccc2c1=O | inactive: 83% |
| O=C(Nc1cc(Cl)ccc1O)c1cc2nc(-c3ccc4c(c3)OCO4)cc(C(F)(F)F)n2n1 | inactive: 93% |
| CN(C)c1ccc(NC(=O)C2(c3cccs3)CCOCC2)cc1 | inactive: 127% |
| COC(=O)C1C2C=CC3(CN(C4CCCC4)C(=O)C13)O2 (configuration not stated) | inactive: 109% |
| O=C(CSCc1ccc(F)cc1)N1CCc2c([nH]c3ccccc23)C1c1ccccc1 (configuration not stated) | inactive: 75% |

| Structure (SMILES) | survival |
| --- | --- |
| CCCOc1ccc(Cn2c(=O)sc3ccccc32)cc1 | active: -4% |
| COc1ccccc1NC(=O)c1c(NC(=O)c2cccs2)sc2c1CCC(C(C)(C)C)C2 (configuration not stated) | inactive: 118% |
| Cc1cccc(N2CCN(C(=O)c3ccc4c(c3)N(Cc3cccc(Cl)c3)C(=O)c3ccccc3S4=O)CC2)c1C (configuration not stated) | inactive: 128% |
| Cc1ccc(-c2nc(SCC(=O)Nc3cc(C)on3)c3c(=O)n(C)c(=O)n(C)c3n2)cc1 | inactive: 92% |
| O=C(CC(=O)Nc1ccccc1F)Nc1ccc2nc3n(c(=O)c2c1)CCCCC3 | inactive: 76% |
| CCc1ccc(OC(=O)c2sc3ncn(Cc4cccc(F)c4)c(=O)c3c2C)cc1 | inactive: 111% |
| CCCCCNc1nc2c(-c3ccccc3)nnn2c2ccccc12 | inactive: 89% |
| CC(C)(C)C1=CC(CO)CC(CO)C1 (configuration not stated) | inactive: 107% |
| Cc1ccc(N2CCN(C(=O)Nc3cn(CC(C)C)c(=O)c4ccccc34)CC2)c(C)c1 | inactive: 146% |
| CC(C)CCn1c(=O)c2sccc2n2c(CCCC(=O)Nc3ccc(F)c(Cl)c3)nnc12 | inactive: 45% |
| O=C(NCc1ccc(F)cc1Cl)c1ccc(CSCc2ccccc2Cl)o1 | inactive: 53% |
| Cc1ccc(NC(=O)c2cc(-c3cccs3)nc3ccccc23)c(C)c1 | inactive: 68% |
| CC(C)Oc1ccc(CNC(=O)c2cnc3sc(N4CCCCCC4)nn3c2=O)cc1 | inactive: 71% |
| COc1ccccc1NC(=O)Cn1c(=O)n(Cc2nc(C)no2)c(=O)c2cc3c(cc21)OCO3 | inactive: 73% |
| COc1ccccc1NC(=O)N1CCOc2ccccc21 | inactive: 86% |
| Cc1cc(C)n2nc(CNS(=O)(=O)c3ccc(F)cc3)nc2n1 | inactive: 88% |
| CCOc1ccc(/C=C/c2nc(C#N)c(N3CCCCCC3)o2)cc1 | inactive: 88% |
| O=C(COc1ccccc1)N1CCNCC1 | inactive: 116% |
| Cc1ccc(CNC(=O)c2ccc(CSCc3c(F)cccc3Cl)o2)cc1 | inactive: 72% |
| CCn1c(C(=O)NCc2ccccc2)cc2sc(Cl)cc21 | active: 2% |
| COc1cccc(CNC(=O)c2ccc(CN3CC(=O)N4CCCCC4C3=O)cc2)c1 (configuration not stated) | inactive: 72% |
| COc1ccccc1/C=C(\C#N)C(=O)NCC1CCCO1 (configuration not stated) | inactive: 137% |
| CCCN(CCC)CCNC(=O)Cn1cnc2sc(C)c(S(=O)(=O)N3CCN(c4ccccc4OC)CC3)c2c1=O | inactive: 71% |

| Structure (SMILES) | survival |
| --- | --- |
| COC(=O)c1cc2oc3ccccc3c2n1CC(=O)Nc1ccc(C)cc1Cl | inactive: 89% |
| CCOc1ccc(-n2c(SCC(=O)N3CCCc4ccccc43)nc3c([nH]c4ccccc43)c2=O)cc1 | inactive: 65% |
| O=C(CCn1c(=O)c2ccccc2n(Cc2ccc(Cl)cc2)c1=O)NCc1ccc2c(c1)OCO2 | inactive: 110% |
| CN(c1ccc(Cl)cc1)S(=O)(=O)c1nnc(NC(=O)c2ccco2)s1 | inactive: 69% |
| CCOC(=O)c1[nH]c(C)c(C(=O)NCCc2ccccc2)c1C | inactive: 92% |
| CCOc1ccccc1NC(=O)CCS(=O)(=O)c1ccc(OC)cc1 | inactive: 71% |
| CCc1ccc(NC(=O)c2cc(CN3CCOCC3)on2)cc1 | inactive: 92% |
| CCCCC(=O)Nc1cccc(-c2nc3ccccc3s2)c1 | inactive: 43% |
| CCN1C(=O)C2C(c3ccco3)NC(C(=O)OC)(c3ccccc3)C2C1=O (configuration not stated) | inactive: 101% |
| Cc1cccc(-n2ccnc2SCC(=O)Nc2cc(C(F)(F)F)ccc2Cl)c1 | inactive: 72% |
| CCCCN(C)CC(O)Cn1cc(/C=C/C(=O)c2ccc(OCC)cc2)c2ccccc21 (configuration not stated) | active: 21% |
| COc1ccc(-n2ncc3c(=O)n(CC(=O)NC(C)C)cnc32)cc1 | inactive: 96% |
| CCOC(=O)C1=C(CN(C)Cc2ccccc2)NC(=O)NC1c1ccc(OC(C)C)cc1 (configuration not stated) | inactive: 81% |
| Cc1ccc2nc(NCCc3ccc(Cl)cc3)c3nncn3c2c1 | inactive: 71% |
| COc1ccc(C)cc1NC(=O)Cc1ccc(NC(=O)N2CCCCc3ccccc32)cc1 | inactive: 60% |
| CC(C)c1ccc(Nc2c(-c3ccsc3)nc3ccc(Cl)cn23)cc1 | inactive: 95% |
| FC(F)(F)c1nnc2c3ccccc3c(Cl)nn12 | inactive: 113% |
| CCn1cc(C(=O)NCc2ccccc2Cl)c(=O)c2cc(S(=O)(=O)N3CCOCC3)ccc21 | inactive: 74% |
| CCC(=O)C1=C(c2ccccc2)N(C(=O)CC)n2c(nnc2C2CCCCC2)S1 | active: 14% |
| O=C(Nc1ccccc1[N+](=O)[O-])c1csnn1 | inactive: 76% |
| CCCOc1ccc(CNC(=O)c2cc3oc4ccccc4c3n2C)cc1 | inactive: 90% |
| NNc1nc(N2CCOCC2)nc(N2CCOCC2)n1 | inactive: 106% |
| Cc1ccc(CNC(=O)c2ccc(NC(=O)c3nsc4ccccc34)cc2)cc1 | inactive: 70% |

| Structure (SMILES) | survival |
| --- | --- |
| COC(=O)c1c(SC)nc2ccccc2c1OCc1cc(C)ccc1C | inactive: 148% |
| O=C1C2CCCN2C(=O)N1c1ccc(Br)cc1 (configuration not stated) | inactive: 120% |
| O=C(Nc1ccc2nc(SCC(=O)N3CCc4ccccc43)sc2c1)c1ccc(Cl)cc1 | inactive: 89% |
| O=C(CSc1nc(-c2cccs2)cc(C(F)(F)F)n1)Nc1ccccc1Cl | inactive: 99% |
| Cc1cccc(C(=O)Nc2sc3c(c2C(=O)Nc2ccccc2)CCC3)c1 | inactive: 67% |
| Cc1ccc(NC(=O)CN2C(=O)C(c3ccc(F)cc3)=NC2(C)C)c(C)c1 | inactive: 85% |
| CCOc1ccccc1NC(=O)C(=O)NCC(c1cccnc1)N1CCN(c2ccccc2)CC1 (configuration not stated) | inactive: 90% |
| Cc1ccc(C=C2C(=O)N(C)C(=O)N(C)C2=O)cc1 | inactive: 96% |
| O=S(=O)(c1ccccc1)c1nnn2c1nc(NC1CCCCCC1)c1sccc12 | inactive: 89% |
| Cc1cccc(Cc2c(C)nc3nc(SCc4cccc(F)c4)nn3c2C)c1 | inactive: 73% |
| CCOc1ccc(CCNC(=O)CN2C(=O)COc3ccc(S(=O)(=O)N(CC)CC)cc32)cc1 | inactive: 119% |
| Cc1ccc(Cn2ccnc2SCC(=O)NC2CCCC2)cc1 | inactive: 68% |
| COc1cc(S(=O)(=O)n2ccnc2C(C)C)ccc1Br | inactive: 64% |
| COc1ccccc1CNC(=O)C(=O)NCC(c1cccnc1)N1CCN(c2ccc(F)cc2)CC1 (configuration not stated) | inactive: 83% |
| Cc1ccc(-c2nc(S(=O)(=O)c3ccc(C)cc3)c(N3CCCCC3)o2)cc1 | active: 0% |
| COc1nc(C)ccc1-c1noc(-c2ccccc2)n1 | inactive: 100% |
| O=S(=O)(c1cccc2nsnc12)N1CCOCC1 | inactive: 101% |
| COc1ccc(Cl)cc1NC(=O)Cn1nnc(C(=O)NCc2cccs2)c1N | inactive: 85% |
| COc1ccccc1NC(=O)COC(=O)CC(C)(C)CC1=NS(=O)(=O)c2ccccc2N1 | active: -3% |
| COc1ccc2c(CNCc3ccco3)c(C(=O)O)n(Cc3ccccc3)c2c1 | inactive: 91% |
| CC1CCc2c(sc3nc(SCC(=O)Nc4c[nH]c(=O)[nH]c4=O)[nH]c(=O)c23)C1 (configuration not stated) | inactive: 107% |
| COc1ccc(N2CCN(C(=O)c3c4c(nc5ccccc35)C(=O)N(C3CCCCC3)C4)CC2)cc1 | inactive: 130% |
| COc1cccc(N2CC(NC(=O)C3CCCC3)CC2=O)c1 (configuration not stated) | inactive: 64% |
